# Measured values published in the supplement of paper PMC8728848.
# The list shows a part of the results.
# B1: MCI4 (Toxoplasma gondii), Q9XZH7 (protein)
# chain: MRASLPVHLVVCTQLSAVWFGVAKAHGGHRLEPHVPGFLQGFTDITPAGDDVSANVTSSEPAKLDLSCVHSDNKGSRAPTIGEPVPDVSLEQCAAQCKAVDGCTHFTYNDDSKMCHVKEGKPDLYDLTGGKTASRSCDRSCFEQHVSYEGAPDVMTAMVTSQSADCQAACAADPSCEIFTYNEHDQKCTFKGRGFSAFKERGVLGVTSGPKQFCDEGGKLTQEEMEDQISGCIQLSDVGSMTADLEEPMEADSVGACMERCRCDGRCTHFTFNDNTRMCYLKGDKMQLYSSPGDRTGPKSCDSSCFSNGVSYVDDPATDVETVFEISHPIYCQVICAANPLCTVFQWYASEAKCVVKRKGFYKHRKTGVTGVTVGPREFCDFGGSIRDREEADAVGSDDGLNAEATMANSPDFHDEVECVHTGNIGSKAQTIGEVKRASSLSECRARCQAEKECSHYTYNVKSGLCYPKRGKPQFYKYLGDMTGSRTCDTSCLRRGVDYSQGPEVGKPWYSTLPTDCQVACDAEDACLVFTWDSATSRCYLIGSGFSAHRRNDVDGVVSGPYTFCDNGENLQVLEAKDTE
# Legend:
# Assay in all cases: glycan array binding signal (z-score within array); higher = stronger binding
# Details in all cases: glycan notation: IUPAC condensed, linker removed
# [1] = molecular target: Fuc(a1-2)[GalNAc(a1-3)]Gal(b1-4)[Fuc(a1-3)]GlcNAc
# How it was run: (§1)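 Glycan array data were curated from 3228 arrays in the Consortium for Functional Glycomics database and kept only where the protein sequence was available. Glycan names were converted to IUPAC-condensed notation, and columns mapping to the same glycan were averaged. The binding signal is a within-array Z-score, averaged across arrays of the same protein sequence at different concentrations or buffers and across linkers. Negative Z-scores can be read as non-binding.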
# [2] = molecular target: Fuc(a1-2)[GalNAc(a1-4)]Gal(b1-4)GlcNAc
# How it was run: as §1
# [3] = molecular target: Fuc(a1-2)[GalNAc(b1-3)]Gal
# How it was run: as §1
# Fuc(a1-3)GlcNAc = molecular target: Fuc(a1-3)GlcNAc
# How it was run: as §1
# [4] = molecular target: Fuc(a1-3)[Gal(b1-4)]Glc6S
# How it was run: as §1
# [5] = molecular target: Fuc(a1-3)[Gal(b1-4)]GlcNAc
# How it was run: as §1
# [6] = molecular target: Fuc(a1-3)[Gal(b1-4)]GlcNAc(b1-2)Man(a1-3)[Fuc(a1-3)[Gal(b1-4)]GlcNAc(b1-2)Man(a1-6)]Man(b1-4)GlcNAc(b1-4)GlcNAc
# How it was run: as §1
# [7] = molecular target: Fuc(a1-3)[Gal(b1-4)]GlcNAc(b1-2)Man(a1-6)[Gal(b1-4)GlcNAc(b1-2)Man(a1-3)]Man(b1-4)GlcNAc(b1-4)GlcNAc
# How it was run: as §1
# [8] = molecular target: Fuc(a1-3)[Gal(b1-4)]GlcNAc(b1-3)Gal(b1-3)[Fuc(a1-4)]GlcNAc
# How it was run: as §1
# [9] = molecular target: Fuc(a1-3)[Gal(b1-4)]GlcNAc(b1-4)Gal(b1-4)[Fuc(a1-3)]GlcNAc
# How it was run: as §1
# [10] = molecular target: Fuc(a1-3)[Gal(b1-4)]GlcNAc(b1-4)Gal(b1-4)[Fuc(a1-3)]GlcNAc(b1-4)Gal(b1-4)[Fuc(a1-3)]GlcNAc
# How it was run: as §1
# [11] = molecular target: Fuc(a1-3)[Gal(b1-4)]GlcNAc6S
# How it was run: as §1
# [12] = molecular target: Fuc(a1-3)[Gal3S(b1-4)]Glc6S
# How it was run: as §1
# [13] = molecular target: Fuc(a1-3)[Gal3S(b1-4)]GlcNAc
# How it was run: as §1
# [14] = molecular target: Fuc(a1-3)[Gal3S(b1-4)]GlcNAc6S
# How it was run: as §1
# [15] = molecular target: Fuc(a1-3)[GalNAc(b1-4)]GlcNAc
# How it was run: as §1
# Fuc(a1-4)GlcNAc = molecular target: Fuc(a1-4)GlcNAc
# How it was run: as §1
# Fuc(b1-3)GlcNAc = molecular target: Fuc(b1-3)GlcNAc
# How it was run: as §1
# Gal(a1-2)Gal = molecular target: Gal(a1-2)Gal
# How it was run: as §1
# Gal(a1-3)Gal = molecular target: Gal(a1-3)Gal
# How it was run: as §1
# Gal(a1-3)Gal(b1-3)GlcNAc = molecular target: Gal(a1-3)Gal(b1-3)GlcNAc
# How it was run: as §1
# Gal(a1-3)Gal(b1-4)Glc = molecular target: Gal(a1-3)Gal(b1-4)Glc
# How it was run: as §1
# Gal(a1-3)Gal(b1-4)GlcNAc = molecular target: Gal(a1-3)Gal(b1-4)GlcNAc
# How it was run: as §1
# [16] = molecular target: Gal(a1-3)Gal(b1-4)[Fuc(a1-3)]GlcNAc
# How it was run: as §1
# Gal(a1-3)GalNAc = molecular target: Gal(a1-3)GalNAc
# How it was run: as §1
# [17] = molecular target: Gal(a1-3)[Gal(a1-4)]Gal(b1-4)GlcNAc
# How it was run: as §1
# Gal(a1-4)Gal(b1-4)Glc = molecular target: Gal(a1-4)Gal(b1-4)Glc
# How it was run: as §1
# Gal(a1-4)Gal(b1-4)GlcNAc = molecular target: Gal(a1-4)Gal(b1-4)GlcNAc
# How it was run: as §1
# Gal(a1-4)GlcNAc = molecular target: Gal(a1-4)GlcNAc
# How it was run: as §1
# Gal(a1-6)Glc = molecular target: Gal(a1-6)Glc
# How it was run: as §1
# Gal(b1-2)Gal = molecular target: Gal(b1-2)Gal
# How it was run: as §1
# Gal(b1-3)Gal = molecular target: Gal(b1-3)Gal
# How it was run: as §1
# Gal(b1-3)Gal(b1-4)GlcNAc = molecular target: Gal(b1-3)Gal(b1-4)GlcNAc
# How it was run: as §1
# Gal(b1-3)GalNAc = molecular target: Gal(b1-3)GalNAc
# How it was run: as §1
# [18] = molecular target: Gal(b1-3)GalNAc(b1-3)Gal(a1-4)Gal(b1-4)Glc
# How it was run: as §1
# [19] = molecular target: Gal(b1-3)GalNAc(b1-4)Gal(b1-4)Glc
# How it was run: as §1
# [20] = molecular target: Gal(b1-3)GalNAc(b1-4)[Neu5Ac(a2-3)]Gal(b1-4)Glc
# How it was run: as §1
# Gal(b1-3)GlcNAc = molecular target: Gal(b1-3)GlcNAc
# How it was run: as §1
# [21] = molecular target: Gal(b1-3)GlcNAc(b1-2)Man(a1-3)[Gal(b1-3)GlcNAc(b1-2)Man(a1-6)]Man(b1-4)GlcNAc(b1-4)GlcNAc
# How it was run: as §1
# [22] = molecular target: Gal(b1-3)GlcNAc(b1-3)Gal(b1-3)GlcNAc
# How it was run: as §1
# [23] = molecular target: Gal(b1-3)GlcNAc(b1-3)Gal(b1-4)Glc
# How it was run: as §1
# [24] = molecular target: Gal(b1-3)GlcNAc(b1-3)Gal(b1-4)GlcNAc
# How it was run: as §1
# [25] = molecular target: Gal(b1-3)[Fuc(a1-4)]GlcNAc
# How it was run: as §1
# [26] = molecular target: Gal(b1-3)[Fuc(a1-4)]GlcNAc(b1-3)Gal(b1-3)[Fuc(a1-4)]GlcNAc
# How it was run: as §1
# [27] = molecular target: Gal(b1-3)[Fuc(a1-4)]GlcNAc(b1-3)Gal(b1-4)GlcNAc
# How it was run: as §1
# [28] = molecular target: Gal(b1-3)[Fuc(a1-4)]GlcNAc(b1-3)Gal(b1-4)[Fuc(a1-3)]GlcNAc
# How it was run: as §1
# [29] = molecular target: Gal(b1-3)[GlcNAc(b1-6)]GalNAc
# How it was run: as §1
# [30] = molecular target: Gal(b1-3)[Neu5Ac(a2-6)]GalNAc
# How it was run: as §1
# [31] = molecular target: Gal(b1-3)[Neu5Ac(a2-6)]GlcNAc(b1-6)Gal(b1-4)Glc
# How it was run: as §1
# [32] = molecular target: Gal(b1-3)[Neu5Ac(b2-6)]GalNAc
# How it was run: as §1
# [33] = molecular target: Gal(b1-4)GalNAc(a1-3)[Fuc(a1-2)]Gal(b1-4)GlcNAc
# How it was run: as §1
# [34] = molecular target: Gal(b1-4)GalNAc(b1-3)[Fuc(a1-2)]Gal(b1-4)GlcNAc
# How it was run: as §1
# Gal(b1-4)Glc = molecular target: Gal(b1-4)Glc
# How it was run: as §1
# Gal(b1-4)Glc6S = molecular target: Gal(b1-4)Glc6S
# How it was run: as §1
# Gal(b1-4)GlcNAc = molecular target: Gal(b1-4)GlcNAc
# How it was run: as §1
# [35] = molecular target: Gal(b1-4)GlcNAc(a1-6)Gal(b1-4)GlcNAc
# How it was run: as §1
# [36] = molecular target: Gal(b1-4)GlcNAc(b1-2)Man(a1-3)[Gal(b1-4)GlcNAc(b1-2)Man(a1-6)]Man(b1-4)GlcNAc(b1-4)GlcNAc
# How it was run: as §1
# [37] = molecular target: Gal(b1-4)GlcNAc(b1-3)Gal(b1-3)GlcNAc
# How it was run: as §1
# [38] = molecular target: Gal(b1-4)GlcNAc(b1-3)Gal(b1-4)Glc
# How it was run: as §1
# [39] = molecular target: Gal(b1-4)GlcNAc(b1-3)Gal(b1-4)GlcNAc
# How it was run: as §1
binder,measurement,setting,value
B1,glycan array binding signal (z-score),[1],-0.192
same,glycan array binding signal (z-score),[2],-0.186
same,glycan array binding signal (z-score),[3],-0.207
same,glycan array binding signal (z-score),Fuc(a1-3)GlcNAc,-0.185
same,glycan array binding signal (z-score),[4],-0.226
same,glycan array binding signal (z-score),[5],-0.186
same,glycan array binding signal (z-score),[6],-0.214
same,glycan array binding signal (z-score),[7],-0.201
same,glycan array binding signal (z-score),[8],-0.192
same,glycan array binding signal (z-score),[9],-0.22
same,glycan array binding signal (z-score),[10],-0.169
same,glycan array binding signal (z-score),[11],-0.219
same,glycan array binding signal (z-score),[12],-0.219
same,glycan array binding signal (z-score),[13],-0.208
same,glycan array binding signal (z-score),[14],-0.225
same,glycan array binding signal (z-score),[15],-0.199
same,glycan array binding signal (z-score),Fuc(a1-4)GlcNAc,-0.198
same,glycan array binding signal (z-score),Fuc(b1-3)GlcNAc,-0.212
same,glycan array binding signal (z-score),Gal(a1-2)Gal,-0.196
same,glycan array binding signal (z-score),Gal(a1-3)Gal,-0.195
same,glycan array binding signal (z-score),Gal(a1-3)Gal(b1-3)GlcNAc,-0.206
same,glycan array binding signal (z-score),Gal(a1-3)Gal(b1-4)Glc,-0.117
same,glycan array binding signal (z-score),Gal(a1-3)Gal(b1-4)GlcNAc,-0.213
same,glycan array binding signal (z-score),[16],-0.172
same,glycan array binding signal (z-score),Gal(a1-3)GalNAc,-0.206
same,glycan array binding signal (z-score),[17],-0.214
same,glycan array binding signal (z-score),Gal(a1-4)Gal(b1-4)Glc,-0.211
same,glycan array binding signal (z-score),Gal(a1-4)Gal(b1-4)GlcNAc,-0.2
same,glycan array binding signal (z-score),Gal(a1-4)GlcNAc,-0.175
same,glycan array binding signal (z-score),Gal(a1-6)Glc,-0.202
same,glycan array binding signal (z-score),Gal(b1-2)Gal,-0.116
same,glycan array binding signal (z-score),Gal(b1-3)Gal,3.08
same,glycan array binding signal (z-score),Gal(b1-3)Gal(b1-4)GlcNAc,5.93
same,glycan array binding signal (z-score),Gal(b1-3)GalNAc,-0.048
same,glycan array binding signal (z-score),[18],-0.212
same,glycan array binding signal (z-score),[19],0.101
same,glycan array binding signal (z-score),[20],3.02
same,glycan array binding signal (z-score),Gal(b1-3)GlcNAc,0.178
same,glycan array binding signal (z-score),[21],-0.156
same,glycan array binding signal (z-score),[22],-0.208
same,glycan array binding signal (z-score),[23],-0.217
same,glycan array binding signal (z-score),[24],-0.22
same,glycan array binding signal (z-score),[25],-0.212
same,glycan array binding signal (z-score),[26],-0.223
same,glycan array binding signal (z-score),[27],-0.206
same,glycan array binding signal (z-score),[28],-0.173
same,glycan array binding signal (z-score),[29],0.739
same,glycan array binding signal (z-score),[30],4.31
same,glycan array binding signal (z-score),[31],-0.175
same,glycan array binding signal (z-score),[32],-0.23
same,glycan array binding signal (z-score),[33],3.21
same,glycan array binding signal (z-score),[34],3.96
same,glycan array binding signal (z-score),Gal(b1-4)Glc,-0.206
same,glycan array binding signal (z-score),Gal(b1-4)Glc6S,5.04
same,glycan array binding signal (z-score),Gal(b1-4)GlcNAc,-0.198
same,glycan array binding signal (z-score),[35],-0.2
same,glycan array binding signal (z-score),[36],4.68
same,glycan array binding signal (z-score),[37],-0.219
same,glycan array binding signal (z-score),[38],-0.2
same,glycan array binding signal (z-score),[39],-0.208
